The test system of one series is Caco-2 cells. The note with it: read-out: CC50 Caco-2; 72h incubation. As for the experimental part: (§1) The cytotoxicity of selected compounds was assessed in Caco2, Huh7 and A549-ACE2 cells after a 72h incubation with the compounds. Specifically, cell viability in the presence of compound was quantified using the CellTiter-Glo 2.0 assay (Promega) and normalized against controls containing an equivalent amounts of DMSO.

The test system of another series is A549-ACE2 cells. The note with it: read-out: CC50 A549-ACE2; 72h incubation. Here is the method:
as §1

Bounds are passed on as bounds.

For the compound `CC(C)(C)NC(=O)N[C@H](C(=O)N1C[C@H]2[C@@H]([C@H]1C(=O)N[C@@H](C[C@@H]1CCNC1=O)C(=O)C(N)=O)C2(C)C)C(C)(C)C` [ML1000], the cytotoxic concentration (CC50) in the series with Caco-2 cells and in the series on A549-ACE2 cells was more than 100 µM throughout.

Take `CC(C)C[C@H](NC(=O)OCc1ccccc1)C(=O)N[C@@H](CC1CCNC1=O)C(O)S(=O)(=O)[O-].[Na+]` (stereo partly shown) [GC-376, reference compound]: the CC50 in the series with Caco-2 cells and in the series with A549-ACE2 cells was more than 100 µM in each case.
